Data from PubChem BioAssay AID588591 (National Center for Advancing Translational Sciences (NCATS), 2011).
Screen size: about 390,000 compounds; about 4,700 (1.2%) were called active. Inconclusive means that the source gave no clear call. Such entries were picked first, then a sample of the others. Calls follow the shape of the dose curve; as a rule, active = well fitted inhibition curve with a large enough effect; inconclusive = small, poorly fitted or top-dose-only effect, or another doubt; inactive = no such curve, though single readings can be large or run the other way. Where the call is inconclusive, the potency comes from a doubtful curve fit.

The compounds below were run against DNA polymerase eta (Homo sapiens) (UniProt Q9Y253) (assay: qHTS for Inhibitors of Polymerase Eta). Settings: recombinant Pol eta, fluorescent DNA replication assay; series mostly up to 114 µM; activity change, negative = inhibition: at the top concentration.
Sequence of UniProt Q9Y253 (Q9Y253 whole entry, looked up): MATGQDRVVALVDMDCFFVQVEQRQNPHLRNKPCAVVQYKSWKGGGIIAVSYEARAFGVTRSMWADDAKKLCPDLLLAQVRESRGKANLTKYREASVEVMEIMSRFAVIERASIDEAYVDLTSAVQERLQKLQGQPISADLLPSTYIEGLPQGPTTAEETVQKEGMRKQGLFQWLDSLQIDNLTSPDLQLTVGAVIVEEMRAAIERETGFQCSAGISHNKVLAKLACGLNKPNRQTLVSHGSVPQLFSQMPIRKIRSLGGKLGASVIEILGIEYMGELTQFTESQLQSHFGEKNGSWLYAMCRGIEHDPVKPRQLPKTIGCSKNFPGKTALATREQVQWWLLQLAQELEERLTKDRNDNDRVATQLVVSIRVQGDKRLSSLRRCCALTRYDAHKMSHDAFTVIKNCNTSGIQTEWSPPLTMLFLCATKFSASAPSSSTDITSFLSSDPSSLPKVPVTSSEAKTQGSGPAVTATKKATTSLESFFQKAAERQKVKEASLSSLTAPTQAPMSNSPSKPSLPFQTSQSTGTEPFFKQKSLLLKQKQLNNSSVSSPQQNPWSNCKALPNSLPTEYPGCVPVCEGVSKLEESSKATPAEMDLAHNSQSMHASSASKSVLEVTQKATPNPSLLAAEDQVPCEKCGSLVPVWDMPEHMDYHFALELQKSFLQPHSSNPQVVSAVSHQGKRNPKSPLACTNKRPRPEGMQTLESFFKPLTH
In short: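 Fluorescent replication assay: 50 nM final substrate added after a 15 min room-temperature compound preincubation with 10 nM enzyme. Signal taken at 0 min and again at 10 min.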
% is scaled to controls: 0 for no effect and ±100 for the full control effect; potency is read from the fitted curve at half-maximal effect; tags tell the direction and shape of the fitted curve.

Row | SMILES | Potency | activity change, negative = inhibition
1 | O=C1NC(c2cccnc2)Nc2sc3c(c21)CCCC3 (stereo unspecified) | inconclusive: 39.8 µM [inhibitor, single point] | –
2 | O=C1NC(=O)C(Nc2ccc(Cl)c(Cl)c2)C(=O)N1 | inconclusive: 89.1 µM [inhibitor, single point] | –
3 | CC(=O)O[C@H]1C(=O)[C@@]2(C)C([C@H](OC(=O)c3ccccc3)[C@]3(O)C[C@H](OC(=O)[C@H](O)[C@@H](NC(=O)Cc4ccccc4)c4ccccc4)C(C)=C1C3(C)C)[C@]1(OC(C)=O)CO[C@@H]1C[C@@H]2O (stereo partly specified) | inconclusive: 35.5 µM [inhibitor, single point] | –
4 | COc1ccc(CN2C(=O)NC(=O)/C(=C\c3ccco3)C2=O)cc1 | active: 8.91 µM | –
5 | CC(Oc1ccc(Cl)cc1Cl)C(=O)Nc1ccc(S(=O)(=O)Nc2cnc3ccccc3n2)cc1 (stereo unspecified) | inconclusive: 56.2 µM [inhibitor, partial curve, poor fit] | –
6 | CCCCn1c(NC(=O)c2ccco2)c(C(=O)OCC)c2nc3ccccc3nc21 | inconclusive: 100 µM [inhibitor, single point] | –
7 | CCOc1cccc(N2C(=O)/C(=C/c3ccco3)C(=O)NC2=S)c1 | active: 3.16 µM | –
8 | Cn1c(=O)c(Oc2ccc(F)cc2)c(O)c2ccccc21 | inconclusive: 100 µM [inhibitor, partial curve, poor fit] | –
9 | O=C1NC(=O)C(=Cc2ccccc2Oc2ccc(F)cc2)C(=O)N1 | – | inactive: -11%
10 | O=c1[nH]c(=S)[nH]c(O)c1N=Nc1cc(S(=O)(=O)Nc2ccc(Cl)cc2)ccc1Cl | active: 79.4 µM | –
11 | Cc1ccc(/C=C2\C(=O)NC(=S)N(c3ccc(F)cc3)C2=O)o1 | active: 12.6 µM | –
12 | CN1C(=O)NC(=O)/C(=C\C=C\c2ccccc2[N+](=O)[O-])C1=O | inconclusive: 70.8 µM [inhibitor, partial curve, poor fit] | –
13 | O=C1NC(=O)N(Cc2ccco2)C(=O)/C1=C/c1ccc(-c2cccc([N+](=O)[O-])c2)o1 | active: 8.91 µM | –
14 | O=[N+]([O-])c1cc(O)c(O)c([N+](=O)[O-])c1 | inconclusive: 39.8 µM [inhibitor, single point] | –
15 | CCC(=NCCc1c[nH]c2ccccc12)c1c(O)n(-c2ccc(C)cc2)c(=O)[nH]c1=O | inconclusive: 89.1 µM [inhibitor, partial curve, poor fit] | –
16 | C=CCN1C(=O)NC(=O)C(Cc2ccc(OC)c(OC)c2)C1=O (stereo unspecified) | active: 8.91 µM | –
17 | O=c1nc(/C=C/c2ccc(Cl)cc2Cl)cc(C(F)(F)F)[nH]1 | active: 31.6 µM | –
18 | CC1Oc2cc3c(-c4c(O)cc(O)c5c(O)c6c(cc45)OC(C)C(C)C6=O)c(O)cc(O)c3c(O)c2C(=O)C1C (stereo unspecified) | active: 7.08 µM | –
19 | COc1ccc(CCn2c(NN=C3CCCCC3)nc3c2c(=O)[nH]c(=O)n3C)cc1 | inconclusive: 79.4 µM [inhibitor, partial curve] | –
20 | COc1ccc(CN2C(=O)NC(=O)/C(=C/c3ccc([N+](=O)[O-])s3)C2=O)cc1 | active: 14.1 µM | –
21 | COc1ccccc1C=C1C(=O)NC(=S)NC1=O | – | inactive: 13.2%

Row | SMILES | Potency | activity change, negative = inhibition
22 | CCOC(=O)c1c(-c2ccc(OC)cc2)oc2ccc(OC(=O)N(C)C)cc12 | inconclusive: 5.01 µM [inhibitor, full curve, poor fit] | –
23 | C[C@H](N)CN1CCc2ccc(Br)cc21 | inactive | –
24 | CCCNC1=C(C)C(=O)C2=C(C1=O)C(COC(N)=O)[C@]1(OC)C3NC3CN21 (stereo partly specified) | inconclusive: 89.1 µM [inhibitor, partial curve, poor fit] | –
25 | COc1ccc(C(=O)Nc2ccccc2C(=O)NC(C(=O)NCc2ccco2)C(C)C)cc1 (stereo unspecified) | active: 8.91 µM | –
26 | CCOC(=O)C1=Nc2ccccc2/C1=C\c1c(O)n(C)c(=O)n(C)c1=O | – | inactive: 2.02%
27 | Cn1cc(/C=C/c2nc3ccccc3c(=O)n2-c2ccccc2)c2ccccc21 | inconclusive: 89.1 µM [inhibitor, partial curve, poor fit] | –
28 | C=Cc1cc(OC)c2c(c1)c(=O)oc1c2cc(OC)c2c(O)ccc(C3OC(C)C(O)C(C)(O)C3O)c21 (stereo unspecified) | active: 1.41 µM | –
29 | CCOC(=O)N1CCN(c2ncc3c(n2)CC(c2ccccc2O)CC3=O)CC1 (stereo unspecified) | inconclusive: 56.2 µM [inhibitor, partial curve, poor fit] | –
30 | CC1CCCN1CCC(C(N)=O)(c1ccccc1)c1ccccc1 (stereo unspecified) | – | inactive: -6.87%
31 | CCCCN1C(=O)/C(=C\c2ccco2)C(=O)N(CCc2ccccc2)C1=O | active: 39.8 µM | –
32 | O=C(Cn1ncc2c3ccccc3n(Cc3cccc(Cl)c3)c2c1=O)N1CCC2(CC1)OCCO2 | inconclusive: 28.2 µM [inhibitor, partial curve] | –
33 | Cc1c(Cl)cccc1N1C(=O)NC(=O)/C(=C\c2cc(C)n(-c3cccc(C(=O)O)c3C)c2C)C1=O | active: 35.5 µM | –
34 | COc1ccc(C(=O)C2CCCN(Cc3ccon3)C2)c(OC)c1 (stereo unspecified) | inconclusive: 100 µM [inhibitor, partial curve, poor fit] | –
35 | COc1cc(/C=C(/C)[N+](=O)[O-])ccc1OCc1ccccc1Cl | inconclusive: 63.1 µM [inhibitor, partial curve, poor fit] | –
36 | COc1cc(O)c(C(=O)O)c(-c2cc(O)c(O)cc2C)c1 | active: 10 µM | –
37 | COC(=O)C1=C(c2ccc(F)cc2OCc2ccccc2)C[C@@H]2CC[C@H]1N2C(=O)N1CCC(O)CC1 | inconclusive: 79.4 µM [inhibitor, partial curve, poor fit] | –
38 | CCCCCc1cc(O)c2c3c(c(=O)oc2c1)CN(C)CC3 | inconclusive: 89.1 µM [inhibitor, partial curve, poor fit] | –
39 | CCOC(=O)c1ccc(N=Cc2c(O)n(-c3ccc(OC)cc3)c(=S)[nH]c2=O)cc1 | inconclusive: 89.1 µM [inhibitor, single point] | –
40 | COC(=O)C1=C(c2ccc(OCc3ccccc3)cc2)C[C@@H]2CC[C@H]1N2C(=O)NCc1ccc(Cl)cc1 | – | inactive: -23.3%
41 | CCN(c1ccc(C)cc1C)S(=O)(=O)c1nnc(NC(=O)c2ccco2)s1 | active: 79.4 µM | –
